Values marked as one replicate rest on one cluster of the flow cell; about a third of the high ones do not repeat.
Test system: ATP
Assay: switch fluorescence ratio, 500 uM ATP over buffer (Cy3 cluster intensity, sum of 5 cycles each) (fold (ratio)); higher = stronger signal-on switching upon ATP binding; sequences stand for … in TCGTCGGCAGCGTCAGATGTGTATAAGAGACAGTTTTTTTTTTTTTTTTTTTTTTTTT…TC
Conditions: aptamer strand: ATP DNA aptamer (quencher-CACCTGGGGGAGTATTGCGGAGGAAGG + anchor), 100 nM annealed; ATP concentration: 500 uM; one replicate
Method in brief: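 Per cluster, summed Cy3 intensity from the target cycles was divided by that from the buffer cycles to give the fluorescence ratio, then averaged per switch-domain sequence. Clusters outside 100-1000 RFU were excluded. The Cy3-labelled switching-strand clusters, on a modified Illumina MiSeq flow-cell, were annealed to 100 nM quencher-labelled ATP aptamer and imaged in selection buffer, then after 15 min with 500 uM ATP at 22 °C, for five cycles with NaOH stripping and re-annealing between them.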
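Further: ATP exposure 15 min at 22 °C before imaging.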

| Sequence | switch fluorescence ratio |
| --- | --- |
| CTCTAAAGGT | 1.05 |
| AAAGCCAGCT | 1.03 |
| CAGGATGCTC | 1 |
| GTAGTGGAGC | 0.971 |
| GCATCGATTG | 0.981 |
| TAGTATATAT | 0.948 |
| ATTAAGCTAT | 1.07 |
| TAGCCTGGAA | 0.991 |
| TCCGCCATT | 3.2 |
| CGAGCAACGG | 1.13 |
| ATAGAGAGTC | 0.956 |
| CCGGGGATGC | 1.41 |
| ACTGCAGAGC | 1 |
| GGGAGGTGCG | 0.982 |
| TACGGTCAAA | 1.03 |
| AAGTGAGCTC | 1.02 |
| AACCGCCCTG | 1.33 |
| ATATGCGGAG | 0.993 |
| AAGGAGTCTT | 1 |
| GTGCTGCAGG | 0.95 |
| GACCTATATG | 1.02 |
| ATAGTTCTCG | 1.01 |
| GCCAGTGATC | 0.998 |

| Sequence | switch fluorescence ratio |
| --- | --- |
| AAAAGGTAAG | 1.02 |
| TGGAGTACCT | 1.84 |
| GTGATCCGA | 0.964 |
| CTCCGGGGCA | 1.93 |
| AACAAGGTAA | 1.01 |
| GATGGTGAAC | 0.974 |
| TGGTGCTCCT | 1.05 |
| AATCCGTGCG | 0.995 |
| ATAAGGGTCT | 0.925 |
| GCAAACGTAA | 1.16 |
| CACGAGTCCG | 1.09 |
| ACATCTAGTA | 0.973 |
| CACGAGGTAC | 1.04 |
| CTCTAATGAT | 0.999 |
| TCTTAGTC | 1.04 |
| AGGTGGTATT | 0.97 |
| AGTGAATCA | 0.965 |
| CCTGTTGATC | 1 |
| TCGATCATGT | 0.963 |
| CGAACAAGTG | 1.04 |
| TACACTCTGA | 0.999 |
| CGTGGGTTAA | 0.978 |
| CTTGGACTG | 1.1 |

| Sequence | switch fluorescence ratio |
| --- | --- |
| CTGCGTGGGG | 1.01 |
| TGGTCTACTC | 1 |
| GATAGATAG | 0.978 |
| AGCATATGCT | 1.05 |
| ATGCAGTTTA | 0.991 |
| TTCGCTCGGG | 0.998 |
| GTTGGTCACT | 1.02 |
| AGTCTATATT | 0.984 |
| GGAACTAGCA | 1.03 |
| CCTGAGACTT | 1.01 |
| AGCAGGACGC | 1.13 |
| CCACCATGAG | 1.07 |
| ATACGTGTGC | 0.999 |
| GCGGCGCTGA | 0.988 |
| CCAGAGTAAT | 1.02 |
| TCTGTCAATT | 1.69 |
| GATCAATACT | 1.53 |
| TAAAATAGG | 0.965 |
| AGACGTCTGC | 1.01 |
| AATTTAACG | 0.996 |
| ATCAAAAAGA | 1.01 |
| GGCAGCATC | 1.19 |
| CCGGTAGCGG | 1.16 |

| Sequence | switch fluorescence ratio |
| --- | --- |
| CTGAAAACGA | 1.13 |
| TCAGTACTAT | 1.03 |
| TACTGGCACC | 1.2 |
| ACCCTCCCTG | 1.16 |
| TAGGGAAGGA | 0.954 |
| GAAACCCGTT | 1.06 |
| ATATGTCATC | 1.09 |
| CAAAACGGCG | 1.07 |
| GGGTCGAAGC | 0.951 |
| TGACTATTAC | 1.21 |
| CGAGCTCTAA | 1.04 |
| AGGTCTATTA | 0.967 |
| GGGAACGTAC | 1.79 |
| CAGTGAAAGT | 0.994 |
| GCCTATACA | 1.05 |
| TCGCCGCGAA | 2.11 |
| CTTGATGGCT | 1.04 |
| TCGCTTCTGA | 0.959 |
| CAATAGGTT | 1.01 |
| ACCATTTAGA | 0.995 |
| ATTTGTAGAT | 1.04 |
| CCCTCTTAAA | 1.1 |
| GCGCGCATG | 1.01 |

| Sequence | switch fluorescence ratio |
| --- | --- |
| CGTTGTTGGG | 0.996 |
| CGAGGGGTGG | 0.994 |
| TGTCTCGCAA | 4.5 |
| TTACTGATTG | 1.3 |
| TTGCGGAAAG | 0.986 |
| GTAAAGTACA | 1.18 |
| CACATTCTCA | 1.02 |
| AGCTGTTGGC | 1 |
| CAAATTAGAG | 0.972 |
| TACTCAGTAC | 1.41 |
| ATACAGCATG | 1.01 |
| TTTAAATTGC | 1.01 |
| CGTTAAAGCA | 0.997 |
| TTTTCGACGT | 1.26 |
| TGACACGTTT | 1 |
| CATTGTAGGC | 0.979 |
| GTACTTTAGT | 1.01 |
| ACTTTAGTC | 1.07 |
| GGCGTAATAA | 1.73 |
| TAAACACCCG | 1.13 |
| CATTTATTGA | 0.966 |
| TTTGTCGTCA | 1.04 |
| TGGTTAGAAC | 1.01 |

| Sequence | switch fluorescence ratio |
| --- | --- |
| AATAGAAGC | 1.03 |
| CCGAACGGCG | 1.26 |
| ACTGGAATAA | 1.14 |
| AAGTACGTTT | 1.17 |
| AAGGTGCTTC | 1.12 |
| GCTTATAC | 2.57 |
| CAGAGACGCA | 1.02 |
| CTAATGTTTC | 0.951 |
| CGCCACGGCT | 0.993 |
| AGGTAGGGG | 0.983 |
| GACAAAATCG | 1.02 |
| TACTGGGCAT | 1.02 |
| GTCACCCTTG | 1.01 |
| TACCTCATAG | 1.02 |
| AATGGTAGCG | 1.04 |
| TAAGACTTAA | 1.02 |
| GGGTGTATTA | 0.992 |
| AAATGAGTG | 0.944 |
| TATCAGGAGG | 1.04 |
| CCTCCCTTA | 5.31 |
| TAGTTGGCT | 0.982 |
| TTCGCCAGAC | 0.977 |
| TGCTCCGTTC | 3.52 |

| Sequence | switch fluorescence ratio |
| --- | --- |
| AGACTTAAAA | 1.03 |
| TTTGGCCCTC | 1.03 |
| CTAGTGCCTA | 0.959 |
| GGCGGAACCT | 1.58 |
| TGTATTTCCC | 0.985 |
| GTGTAGGCA | 0.977 |
| CATGGACAGA | 1.05 |
| TCAAATCGCG | 1.02 |
| GCTCTCACGC | 0.998 |
| ACTGCAGCGC | 1.04 |
| GTGCACTGGT | 0.967 |
| TATAGTGTGG | 0.972 |
| CAAACTTGTG | 0.996 |
| GAGCTGAAAG | 1 |
| CATTTCTCCC | 1.01 |
| GTGTATATGT | 0.98 |
| AAAGCTGCTG | 1.03 |
| TATATCGAGA | 1 |
| GAATAATCCA | 1.02 |
| CTTTGGGCGG | 1.01 |

Reference: the supplement of paper PMC10126150
